# Results taken from PubChem BioAssay AID651711 (Broad Institute, 2012).
# Among all 350,000 compounds or so, about 180 (0.051%) were called active. The shares of active, inactive and inconclusive entries below differ from those in the screen.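 Rule for the calls: active = mean replicate inhibition above about 25%, with every replicate also reaching it (limit read from the data, passing the limit was not always enough); inconclusive = only one of those two criteria met; inactive = neither criterion met.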
# Target: Protein disulfide-isomerase A6 (Homo sapiens) (UniProt Q15084)
# Assay: inhibitors of ERp5-driven insulin aggregation, primary screen, biochemical, turbidity, absorbance 650 nm, single point (AID 651711)
# Conditions: 90 min, at 9.99 µM, hits give high values
# UniProt Q15084, sequence (Q15084 whole entry, looked up): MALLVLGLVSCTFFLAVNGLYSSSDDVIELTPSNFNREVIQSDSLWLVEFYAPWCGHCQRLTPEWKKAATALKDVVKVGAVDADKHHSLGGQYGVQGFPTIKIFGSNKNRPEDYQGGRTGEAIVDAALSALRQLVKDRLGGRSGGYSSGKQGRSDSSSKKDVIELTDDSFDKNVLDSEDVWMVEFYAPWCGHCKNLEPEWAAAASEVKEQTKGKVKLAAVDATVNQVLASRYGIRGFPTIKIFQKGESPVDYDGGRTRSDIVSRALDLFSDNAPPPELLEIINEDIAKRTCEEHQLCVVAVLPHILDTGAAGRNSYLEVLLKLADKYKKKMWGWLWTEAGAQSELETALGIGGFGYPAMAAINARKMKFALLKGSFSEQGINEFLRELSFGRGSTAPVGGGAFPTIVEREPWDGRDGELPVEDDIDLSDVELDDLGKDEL
row,Structure (SMILES),inhibition
1,CN(C)CC#Cc1ccc([C@@H]2[C@@H](CO)N3CCCCN(C(=O)C4CCCC4)C[C@H]23)cc1,inconclusive: 26.3%
2,CC(=O)NS(=O)(=O)c1ccc(NC(=O)c2ccccn2)cc1,inconclusive: 25.3%
3,Cn1c(=O)c2c(ncn2Cc2ccccc2)n(C)c1=O,inconclusive: 45.9%
4,O=C(N/C(=C\c1cn(-c2ccccc2)nc1-c1ccc(Cl)cc1)C(=O)N1CCOCC1)c1ccccc1,inconclusive: 30.9%
5,CCCCC(=O)Nc1ccc(C(=O)NNC(=O)CCc2ccccc2)cc1,inactive: 3.13%
6,O=C1CCCC(=O)N1c1ccc(N2CCOCC2)c([N+](=O)[O-])c1,inconclusive: 39.3%
7,COc1ccc2c(c1)CC/C(=C/c1cc(OC)c(OC)c(OC)c1)C2=O,inconclusive: 45.6%
8,CN(CC(=O)Nn1cnnc1)S(=O)(=O)c1ccccc1,inconclusive: 61.1%
9,C[C@H]1CN([C@@H](C)CO)C(=O)Cc2cc(NC(=O)Nc3cccc4ccccc34)ccc2O[C@H]1CN(C)C(=O)Nc1cccc2ccccc12,active: 25.8%
10,Cc1ccc(OCCn2cc(/C=C/C(=O)O)c3ccccc32)cc1,inconclusive: 26.2%
11,C[C@@H]1CCCCO[C@@H](CN(C)C(=O)Nc2ccc3c(c2)OCO3)[C@H](C)CN([C@@H](C)CO)C(=O)c2cc(NS(=O)(=O)c3cn(C)cn3)ccc2O1,inactive: -7.52%
12,COc1cccc(S(=O)(=O)N2CC3(CN(C(=O)Nc4cccc(F)c4)[C@H](CO)c4[nH]c5cc(OC)ccc5c43)C2)c1,active: 68.9%
13,CCc1ccc(O)c(CNCCNCc2cc(CC)ccc2O)c1,inactive: 5.64%
14,O=C(CNC1CCCCC1)Nc1ccc(Cl)cc1,inconclusive: 28.9%
15,COc1ccc(CNC(=O)/C=C/c2ccc(S(=O)(=O)N3CCOCC3)cc2)cc1,inconclusive: 26.7%
16,CCn1c(C)c2c(C)nnc(C)c2c1C,inconclusive: 53.2%
17,CSc1ncc(Cl)c(C(=O)Nc2ccc(NC(C)=O)cc2)n1,inconclusive: 44.9%
18,O=C(O)COc1ccc(/C=N/NC(=O)c2ccc(-c3csc(Nc4ccc(Cl)cc4)n3)cc2)cc1,inactive: -5.05%
19,Cc1ccc2c(Cl)c(C)c(N3CCCC3)nc2n1,inconclusive: 29.1%
20,NC(=O)NCc1ccccc1F,inconclusive: 38.7%
21,Cc1ccc(SCCCCN2CCOCC2)cc1,inconclusive: 34.7%
22,CC(=O)c1ccc(N2CCN(c3ccc(S(=O)(=O)NCCN(C)C)cc3[N+](=O)[O-])CC2)cc1,inconclusive: 45.3%
23,O=C(N[C@@H]1CC[C@@H](CCNS(=O)(=O)c2cccc(Cl)c2)O[C@H]1CO)c1ccncc1,inconclusive: 49.2%
24,CCc1ccc(O)c(N=Cc2cccc(C)c2O)c1,inconclusive: 40.9%
25,O=C(Nc1ccncc1)C1CCN(S(=O)(=O)c2cccc(C(F)(F)F)c2)CC1,active: 27.3%

row,Structure (SMILES),inhibition
1,O=C(O)CCSc1nnc(COc2cccc3cccnc23)n1-c1ccccc1,inconclusive: 43.9%
2,COCC#Cc1cnc2c(c1)C(=O)N([C@@H](C)CO)C[C@H](C)[C@H](CN(C)C(=O)Nc1ccc(OC)cc1)O2,inconclusive: 39.9%
3,Cc1nnc(NC(=O)c2c(-c3ccccc3Cl)noc2C)s1,inconclusive: 39.2%
4,Cc1ccc2nc(-c3cccc(Br)c3)c(Cc3cccc(Cl)c3)n2c1,active: 25.3%
5,COc1ccc(NC(=O)Cn2nnc(C(=O)NCc3ccc4c(c3)OCO4)c2N)cc1,inconclusive: 45.1%
6,C[C@@H]1CN([C@H](C)CO)C(=O)Cc2cc(NC(=O)CCCCCC(=O)Nc3ccccc3N)ccc2O[C@H]1CN(C)Cc1ccc2c(c1)OCO2,inactive: 4.28%
7,O=C(C[C@@H]1C[C@H]2c3cc(NS(=O)(=O)c4ccccc4)ccc3O[C@H]2[C@H](CO)O1)NC1CCCCC1,active: 35%
8,O=C1OC(c2ccc(Br)cc2)=N/C1=C\c1ccco1,inconclusive: 40.5%
9,COc1ccccc1C/C(N)=N/OC(=O)COc1ccc(C)cc1,inconclusive: 42.9%
10,C[C@@H](O)C#Cc1cnc2c(c1)C(=O)N([C@@H](C)CO)C[C@H](C)[C@@H](CN(C)CC1CCOCC1)O2,inconclusive: 32.4%
11,C[C@H](CO)N1C[C@H](C)[C@@H](CN(C)S(=O)(=O)c2cn(C)cn2)Oc2ccc(NC(=O)Nc3cccc4ccccc34)cc2CC1=O,inactive: 8.8%
12,COc1ccc(C(=O)N/C(=C\c2cccc([N+](=O)[O-])c2)C(=O)Nc2cccc(C(=O)O)c2)cc1,inactive: -1.41%
13,N#C/C(=C\c1c(Cl)cccc1Cl)c1nn(-c2ccccc2)c(-n2cccc2)c1C#N,inactive: -0.378%
14,O=C(N/N=C/c1ccco1)c1cc(-c2ccc(Br)s2)[nH]n1,inactive: 1.82%
15,Cc1cc(C(=O)Nc2cccc3c2O[C@@H](CN(C)S(=O)(=O)c2ccc(Cl)cc2)[C@@H](C)CN([C@@H](C)CO)C3=O)n(C)n1,active: 26%
16,O=C(N/N=C1\CCCc2ccccc21)c1ccccc1Cl,active: 27.7%
17,Cc1noc(C)c1COc1cccc(C(=O)OC(C)C#N)c1 (centres undefined),inactive: -0.928%
18,CN(C)C(=O)C[C@@H]1CC[C@@H]2[C@H](COC[C@@H](O)CN2CC2CCCC2)O1,inactive: 3.35%
19,CC(=O)c1ccc(N(C(=O)c2ccco2)C(C(=O)NC2CCCC2)c2ccc(N3CCOCC3)cc2)cc1 (centres undefined),inactive: -0.787%
20,O=C(CSc1n[nH]c(-c2ccccn2)n1)Nc1ccc(Cl)cc1,inactive: 5.63%
21,COCC(=O)N(C)C[C@H]1Oc2cc(C#CC(C)(C)O)ccc2S(=O)(=O)N([C@@H](C)CO)C[C@@H]1C,active: 47.2%
22,CNC[C@H]1Oc2ccc(NC(=O)Nc3ccc(C(F)(F)F)cc3)cc2CC(=O)N([C@H](C)CO)C[C@@H]1C,inactive: 10.7%
23,CN1C(=O)c2cc(NC(=O)C3CCCC3)ccc2OC[C@@H]2O[C@@H](CC(=O)O)CC[C@@H]21,inactive: -1.63%
24,COCCn1c(C(=O)N2CCCC2)cc2c1C[C@H]1CN(C(=O)c3ccccc3)[C@@](Cc3ccc(F)cc3)(C(=O)OC)[C@@H]21,inactive: 2.78%
